# The whole screen tested about 3,200 compounds, of which about 300 (9.4%) showed activity. This is a selection; strong and weak results do not stand in their true shares.
# Test system: A673/TR/shEF
# Test: cell viability (LOESS-normalised, relative to median of negative controls) (log2 ratio); higher = more viable cells (less compound effect), active = hit call of the paper (over 3 MAD below the median)
# Conditions: treatment time: 72 h
# How it was run: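 Viability of A673/TR/shEF Ewing sarcoma cells was determined by CellTiter-Glo luminescence. The cells, at 1,500 per well in 384-well plates, were grown with or without doxycycline from 24 h before compound addition to switch on EWS-FLI1 shRNA knockdown, then exposed for three days to library compounds at two or more concentrations or to DMSO controls. Signals were LOESS-corrected plate by plate, normalised to the negative-control median and log2-transformed.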
# [1] = 0.25 µM, library screen: screen2, EWS-FLI1 expression: high (no doxycycline)
# [2] = 0.25 µM, library screen: screen2, EWS-FLI1 expression: low (doxycycline-induced shRNA knockdown)
# [3] = 2.5 µM, library screen: screen2, EWS-FLI1 expression: high (no doxycycline)
# [4] = 2.5 µM, library screen: screen2, EWS-FLI1 expression: low (doxycycline-induced shRNA knockdown)
# [5] = 0.25 µM, library screen: screen1, EWS-FLI1 expression: high (no doxycycline)
# [6] = 0.25 µM, library screen: screen1, EWS-FLI1 expression: low (doxycycline-induced shRNA knockdown)
# [7] = 2.5 µM, library screen: screen1, EWS-FLI1 expression: high (no doxycycline)
# [8] = 2.5 µM, library screen: screen1, EWS-FLI1 expression: low (doxycycline-induced shRNA knockdown)
smiles,measurement,setting,value
CCCN1CCc2cc(O)cc3c2[C@H]1Cc1ccc(O)c(O)c1-3,cell viability (log2),[1],inactive: 0.252
same,cell viability (log2),[2],inactive: 0.00394
same,cell viability (log2),[3],inactive: 0.189
same,cell viability (log2),[4],inactive: -0.00517
COc1cc2c(cc1OC)[C@@H]1C(=O)c3ccc4oc(C(C)C)cc4c3O[C@@H]1CO2,cell viability (log2),[5],inactive: 0.0223
same,cell viability (log2),[6],inactive: 0.0518
same,cell viability (log2),[7],active: -0.307
same,cell viability (log2),[8],inactive: -0.129
C[C@]12CC[C@H](O)C[C@H]1CC[C@@H]1[C@@H]2[C@H](O)C[C@]2(C)[C@@H](C3=CC(=O)OC3)CC[C@]12O,cell viability (log2),[7],active: -0.259
same,cell viability (log2),[8],active: -0.409
COc1cc([C@@H]2c3cc4c(c(O)c3C[C@H]3COC(=O)[C@@H]32)OCO4)cc(OC)c1OC,cell viability (log2),[5],inactive: 0.0843
same,cell viability (log2),[6],inactive: 0.0231
same,cell viability (log2),[7],active: -3
same,cell viability (log2),[8],active: -0.852
CC(=O)NBr,cell viability (log2),[1],inactive: 0.153
same,cell viability (log2),[2],inactive: 0.0844
same,cell viability (log2),[3],inactive: 0.141
same,cell viability (log2),[4],inactive: 0.0566
Cc1c2ccncc2c(C)c2c1[nH]c1ccccc12,cell viability (log2),[1],inactive: 0.0843
same,cell viability (log2),[2],inactive: 0.00884
same,cell viability (log2),[3],active: -0.136
same,cell viability (log2),[4],inactive: -0.00745
COc1cccc(CN2CCN(Cc3cccc(F)c3)CC2)c1,cell viability (log2),[5],inactive: 0.0335
same,cell viability (log2),[6],inactive: 0.131
same,cell viability (log2),[7],inactive: 0.0329
same,cell viability (log2),[8],inactive: 0.0279
CC(C)NP(=O)(NC(C)C)OP(=O)(NC(C)C)NC(C)C,cell viability (log2),[1],inactive: 0.195
same,cell viability (log2),[2],inactive: 0.0938
same,cell viability (log2),[3],inactive: 0.326
same,cell viability (log2),[4],inactive: 0.0713
Oc1ccc(Cl)cc1,cell viability (log2),[5],inactive: 0.148
same,cell viability (log2),[6],inactive: 0.145
same,cell viability (log2),[7],inactive: 0.212
same,cell viability (log2),[8],inactive: 0.167
N#CCCN,cell viability (log2),[1],inactive: 0.178
same,cell viability (log2),[2],inactive: 0.0325
same,cell viability (log2),[3],inactive: 0.0955
same,cell viability (log2),[4],inactive: 0.0681
C=C(C)[C@@H]1[C@H]2OC(=O)[C@@H]1[C@]1(O)C[C@H]3O[C@]34C(=O)O[C@H]2[C@]14C,cell viability (log2),[5],inactive: 0.0904
same,cell viability (log2),[6],inactive: 0.0443
same,cell viability (log2),[7],inactive: 0.13
same,cell viability (log2),[8],inactive: 0.128
CC(=O)Oc1ccc(Cl)c2cccnc12,cell viability (log2),[5],inactive: 0.106
same,cell viability (log2),[6],inactive: 0.136
same,cell viability (log2),[7],inactive: 0.0698
same,cell viability (log2),[8],inactive: 0.0992
O=P1(NCCCl)OCCCN1CCCl (stereo not drawn),cell viability (log2),"0.103 µM, library screen: screen3, EWS-FLI1 expression: high (no doxycycline)",inactive: 0.0536
same,cell viability (log2),"0.103 µM, library screen: screen3, EWS-FLI1 expression: low (doxycycline-induced shRNA knockdown)",inactive: 0.037
same,cell viability (log2),"0.308 µM, library screen: screen3, EWS-FLI1 expression: high (no doxycycline)",inactive: 0.0929
same,cell viability (log2),"0.308 µM, library screen: screen3, EWS-FLI1 expression: low (doxycycline-induced shRNA knockdown)",inactive: 0.0327
same,cell viability (log2),"0.926 µM, library screen: screen3, EWS-FLI1 expression: high (no doxycycline)",inactive: 0.108
same,cell viability (log2),"0.926 µM, library screen: screen3, EWS-FLI1 expression: low (doxycycline-induced shRNA knockdown)",inactive: 0.0888
same,cell viability (log2),"2.8 µM, library screen: screen3, EWS-FLI1 expression: high (no doxycycline)",inactive: 0.143
same,cell viability (log2),"2.8 µM, library screen: screen3, EWS-FLI1 expression: low (doxycycline-induced shRNA knockdown)",inactive: 0.0339
same,cell viability (log2),"8.3 µM, library screen: screen3, EWS-FLI1 expression: high (no doxycycline)",inactive: 0.0862
same,cell viability (log2),"8.3 µM, library screen: screen3, EWS-FLI1 expression: low (doxycycline-induced shRNA knockdown)",inactive: 0.0777
same,cell viability (log2),"25 µM, library screen: screen3, EWS-FLI1 expression: high (no doxycycline)",inactive: 0.0979
same,cell viability (log2),"25 µM, library screen: screen3, EWS-FLI1 expression: low (doxycycline-induced shRNA knockdown)",inactive: 0.0524
NC(=O)CN1CCCC1=O,cell viability (log2),[5],inactive: 0.113
same,cell viability (log2),[6],inactive: -0.0157
same,cell viability (log2),[1],inactive: 0.159
same,cell viability (log2),[2],inactive: 0.117
same,cell viability (log2),[7],inactive: 0.198
same,cell viability (log2),[8],inactive: -0.00602
same,cell viability (log2),[3],inactive: 0.124
same,cell viability (log2),[4],inactive: 0.0664
COc1cc2c(cc1OC)C(C)NCC2 (stereo not drawn),cell viability (log2),[5],inactive: 0.121
same,cell viability (log2),[6],inactive: 0.123
same,cell viability (log2),[7],inactive: 0.193
same,cell viability (log2),[8],inactive: 0.143
CCCCN(CC)c1c([N+](=O)[O-])cc(C(F)(F)F)cc1[N+](=O)[O-],cell viability (log2),[5],inactive: 0.116
same,cell viability (log2),[6],inactive: 0.132
same,cell viability (log2),[7],inactive: 0.0478
same,cell viability (log2),[8],inactive: 0.194
CC(=O)OC1CCC23C(=O)OC45CCC(C6=CC(=O)OC6)C4(C)CCC2C5CCC3(O)C1 (stereo not drawn),cell viability (log2),[7],active: -1.11
same,cell viability (log2),[8],active: -1.12
CC1=CC(=O)C2=C(C)C[C@H](O)[C@H]3[C@H](C)C(=O)O[C@@H]3C12 (stereo partly drawn),cell viability (log2),[5],inactive: 0.136
same,cell viability (log2),[6],inactive: 0.0103
same,cell viability (log2),[7],inactive: 0.161
same,cell viability (log2),[8],inactive: 0.0651
Cn1c(=O)c2c(ncn2CCCl)n(C)c1=O,cell viability (log2),[5],inactive: 0.086
same,cell viability (log2),[6],inactive: -0.0151
same,cell viability (log2),[7],inactive: -0.000593
same,cell viability (log2),[8],inactive: 0.00538
Cc1ccc(S(=O)(=O)N[C@@H](CCCCN)C(=O)CCl)cc1,cell viability (log2),[1],inactive: 0.171
same,cell viability (log2),[2],inactive: 0.0178
same,cell viability (log2),[3],inactive: 0.185
same,cell viability (log2),[4],inactive: 0.0594
CCCN1CCC[C@@H](c2cccc(O)c2)C1,cell viability (log2),[1],inactive: 0.197
same,cell viability (log2),[2],inactive: 0.0866
same,cell viability (log2),[3],inactive: 0.0873
same,cell viability (log2),[4],inactive: 0.0807
CCNC(=O)[C@H]1O[C@@H](n2cnc3c(N)ncnc32)[C@H](O)[C@@H]1O,cell viability (log2),[1],inactive: 0.186
same,cell viability (log2),[2],inactive: 0.0998
same,cell viability (log2),[3],inactive: 0.0806
same,cell viability (log2),[4],inactive: 0.122
Clc1ccc(N2CC3CCC(C2)N3)nn1,cell viability (log2),[1],inactive: 0.0793
same,cell viability (log2),[2],inactive: 0.0488
same,cell viability (log2),[3],inactive: 0.0757
same,cell viability (log2),[4],inactive: 0.0472
Cc1cccc(C)c1NC1=NCCCS1,cell viability (log2),[5],inactive: 0.119
same,cell viability (log2),[6],inactive: 0.109
same,cell viability (log2),[1],inactive: 0.135
same,cell viability (log2),[2],inactive: 0.0946
same,cell viability (log2),[7],inactive: 0.147
same,cell viability (log2),[8],inactive: 0.163
same,cell viability (log2),[3],inactive: 0.169
same,cell viability (log2),[4],inactive: 0.0803

# Source: the supplement of paper PMC6089552
